# In the supplement of paper PMC12355420:
# Structures can show the parent of a compound that is named as a salt. The list shows a part of the results. Single values are uncertain, as repeats are few or missing.
# Tested on: HeLa VPS33A reporter cells
# Experiment: relative cell viability (CellMask signal) vs DMSO (fraction of DMSO); HeLa model of a glycosaminoglycan (GAG) storage disease; KI is knock-in and KO knock-out; SDC1 is syndecan 1; higher = less cytotoxic
# Settings: 50 µM; 24 h
# 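Further: primary screen of an FDA-approved drug library in HeLa reporter cells in 96-well format, CellMask signal normalized to DMSO-treated wells set as 1, under 0.5 deemed highly cytotoxic.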
row,SMILES,relative cell viability
1,NCCC(O)(P(=O)(O)O)P(=O)(O)O [Pamidronate Disodium],1.36
2,O=C(O)C(=O)O.[NH-][C@@H]1CCCC[C@H]1[NH-].[Pt+2] [Oxaliplatin],1.25
3,CCN1CCC[C@H]1CNC(=O)c1cc(S(N)(=O)=O)ccc1OC [Levosulpiride],0.946
4,Oc1cccc(O)c1O [Pyrogallol],1.04
5,NC(=O)N/N=C/c1ccc([N+](=O)[O-])o1 [Nitrofurazone],0.818
6,CC[C@H]1OC(=O)[C@H](C)[C@@H](O[C@H]2C[C@@](C)(OC)[C@@H](O)[C@H](C)O2)[C@H](C)[C@@H](O[C@@H]2O[C@H](C)C[C@H](N(C)C)[C@H]2O)[C@](C)(O)C[C@@H](C)C(=O)[C@H](C)[C@@H](O)[C@]1(C)O [Erythromycin],1.04
7,OCCOCCN1CCN(C2=Nc3ccccc3Sc3ccccc32)CC1 [Quetiapine Fumarate],1.03
8,CCCCS(=O)(=O)N[C@@H](Cc1ccc(OCCCCC2CCNCC2)cc1)C(=O)O [Tirofiban hydrochloride monohydrate],1.23
9,CC(C)=CCC/C(C)=C/CO [Geraniol],0.942
10,Cc1ccsc1C(=CCCN1CCC[C@@H](C(=O)O)C1)c1sccc1C [Tiagabine],1.05
11,COc1ccc2cc3[n+](cc2c1OC)CCc1cc2c(cc1-3)OCO2 [Berberine Sulfate],0.539
12,COCCOC(=O)C1=C(C)NC(C)=C(C(=O)OC/C=C/c2ccccc2)C1c1cccc([N+](=O)[O-])c1 (centres undefined) [Cilnidipine],0.775
13,O=C(O)/C=C/c1ccc(O)c(O)c1 [Caffeic acid],1
14,COc1ccc2cc([C@H](C)C(=O)O)ccc2c1 [Naproxen Sodium],1.07
15,O=c1cc[nH]c(=O)[nH]1 [Uracil],1.06
16,CN1CCN2c3ccccc3Cc3ccccc3C2C1 (centres undefined) [Mianserin HCl],0.553
17,O=C(N[C@H](CO)[C@H](O)c1ccc([N+](=O)[O-])cc1)C(Cl)Cl [Chloramphenicol],1.17
18,COc1ccc2c(c1OC)C(=O)O[C@@H]2[C@H]1c2c(cc3c(c2OC)OCO3)CCN1C [Noscapine HCl],0.756
19,Cc1ncc(CO)c(CO)c1O [Pyridoxine],1.23
20,O=C(O)C1=CO[C@@H](O[C@@H]2O[C@H](CO)[C@@H](O)[C@H](O)[C@H]2O)[C@@H]2C(CO)=CC[C@H]12 [Geniposidic acid],1.04
21,CC1(C)Cc2c(-c3ccccc3)c(-c3ccc(Cl)cc3)c(CC(=O)O)n2C1 [Licofelone],1.14
22,C[C@]1(OC(=O)/C=C/c2ccccc2)C[C@@H](O)[C@]2(O)C=CO[C@@H](O[C@@H]3O[C@H](CO)[C@@H](O)[C@H](O)[C@H]3O)[C@@H]21 [Harpagoside],1.04
23,O=C(O)c1ccncc1 [Isonicotinic acid],1.09
24,CC(=O)Oc1cc2c(s1)CCN(C(C(=O)C1CC1)c1ccccc1F)C2 (centres undefined) [Prasugrel hydrochloride],0.692
25,CCCCCN(C)CCC(O)(P(=O)(O)O)P(=O)(O)O [Ibandronate sodium],0.958
26,COc1cc(Nc2nc3ccccc3nc2NS(=O)(=O)c2ccc(NC(=O)c3ccc(C)c(OC)c3)cc2)cc(OC)c1,0.92
27,CC1(C)O[C@@H]2C[C@H]3[C@@H]4C[C@H](F)C5=CC(=O)C=C[C@]5(C)[C@H]4[C@@H](O)C[C@]3(C)[C@]2(C(=O)CO)O1 [Flunisolide],1.2
28,O=C(NCCN1CCOCC1)c1ccc(Cl)cc1,1.07
29,COC1=CC(=O)C[C@@H](C)[C@]12Oc1c(Cl)c(OC)cc(OC)c1C2=O [Griseofulvin],0.833
